Laboratory results as given in the supplement of paper PMC8728848.
The list shows a part of the results.

Experiments:
Assay in all cases: glycan array binding signal (z-score within array); higher = stronger binding
Details in all cases: glycan notation: IUPAC condensed, linker removed
[1] = target: Fuc(a1-2)Gal
Procedure, shortened: (§1)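 Arrays were curated from the Consortium for Functional Glycomics database, 3228 in total, and kept only where the protein sequence was available. Binding is expressed as a within-array Z-score. This score was averaged across arrays of the same protein sequence at different concentrations or buffers and across linkers, and negative values can be read as non-binding.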

[2] = target: Fuc(a1-2)Gal(b1-3)GalNAc
Procedure, shortened: as §1

[3] = target: Fuc(a1-2)Gal(b1-3)GalNAc(a1-3)[Fuc(a1-2)]Gal(b1-4)Glc
Procedure, shortened: as §1

[4] = target: Fuc(a1-2)Gal(b1-3)GalNAc(a1-3)[Fuc(a1-2)]Gal(b1-4)GlcNAc
Procedure, shortened: as §1

[5] = target: Fuc(a1-2)Gal(b1-3)GalNAc(b1-3)Gal
Procedure, shortened: as §1

[6] = target: Fuc(a1-2)Gal(b1-3)GalNAc(b1-3)Gal(a1-4)Gal(b1-4)Glc
Procedure, shortened: as §1

[7] = target: Fuc(a1-2)Gal(b1-3)GalNAc(b1-4)[Neu5Ac(a2-3)]Gal(b1-4)Glc
Procedure, shortened: as §1

[8] = target: Fuc(a1-2)Gal(b1-3)GlcNAc
Procedure, shortened: as §1

[9] = target: Fuc(a1-2)Gal(b1-3)GlcNAc(b1-2)Man(a1-3)[Fuc(a1-2)Gal(b1-3)GlcNAc(b1-2)Man(a1-6)]Man(b1-4)GlcNAc(b1-4)GlcNAc
Procedure, shortened: as §1

[10] = target: Fuc(a1-2)Gal(b1-3)GlcNAc(b1-2)Man(a1-3)[Fuc(a1-2)Gal(b1-3)GlcNAc(b1-2)Man(a1-6)]Man(b1-4)GlcNAc(b1-4)[Fuc(a1-6)]GlcNAc
Procedure, shortened: as §1

[11] = target: Fuc(a1-2)Gal(b1-3)GlcNAc(b1-3)Gal(b1-4)Glc
Procedure, shortened: as §1

[12] = target: Fuc(a1-2)Gal(b1-3)GlcNAc(b1-3)GalNAc
Procedure, shortened: as §1

[13] = target: Fuc(a1-2)Gal(b1-3)GlcNAc(b1-3)[Fuc(a1-2)Gal(b1-3)GlcNAc(b1-6)]GalNAc
Procedure, shortened: as §1

[14] = target: Fuc(a1-2)Gal(b1-3)GlcNAc(b1-3)[Gal(b1-4)GlcNAc(b1-6)]Gal(b1-4)Glc
Procedure, shortened: as §1

[15] = target: Fuc(a1-2)Gal(b1-3)GlcNAc(b1-3)[Neu5Ac(a2-6)Gal(b1-4)GlcNAc(b1-6)]Gal(b1-4)Glc
Procedure, shortened: as §1

[16] = target: Fuc(a1-2)Gal(b1-3)GlcNAc6S
Procedure, shortened: as §1

[17] = target: Fuc(a1-2)Gal(b1-3)[Fuc(a1-4)]GlcNAc
Procedure, shortened: as §1

[18] = target: Fuc(a1-2)Gal(b1-3)[Fuc(a1-4)]GlcNAc(b1-2)Man(a1-3)[Fuc(a1-2)Gal(b1-3)[Fuc(a1-4)]GlcNAc(b1-2)Man(a1-3)]Man(b1-4)GlcNAc(b1-4)GlcNAc
Procedure, shortened: as §1

[19] = target: Fuc(a1-2)Gal(b1-3)[Fuc(a1-4)]GlcNAc(b1-2)Man(a1-3)[Fuc(a1-2)Gal(b1-3)[Fuc(a1-4)]GlcNAc(b1-2)Man(a1-6)]Man(b1-4)GlcNAc(b1-4)[Fuc(a1-6)]GlcNAc(b1-4)[Fuc(a1-6)]GlcNAc
Procedure, shortened: as §1

[20] = target: Fuc(a1-2)Gal(b1-3)[Fuc(a1-4)]GlcNAc(b1-3)[Fuc(a1-3)[Gal(b1-4)]GlcNAc(b1-6)]Gal(b1-4)Glc
Procedure, shortened: as §1

[21] = target: Fuc(a1-2)Gal(b1-3)[Fuc(a1-4)]GlcNAc(b1-3)[Gal(b1-4)GlcNAc(b1-6)]Gal(b1-4)Glc
Procedure, shortened: as §1

[22] = target: Fuc(a1-2)Gal(b1-4)Fuc(a1-3)]GlcNAc(b1-2)Man(a1-3)[Fuc(a1-2)Gal(b1-4)[Fuc(a1-3)]GlcNAc(b1-2)Man(a1-6)]Man(b1-4)GlcNAc(b1-4)GlcNAc
Procedure, shortened: as §1

[23] = target: Fuc(a1-2)Gal(b1-4)Glc
Procedure, shortened: as §1

[24] = target: Fuc(a1-2)Gal(b1-4)Glc6S
Procedure, shortened: as §1

[25] = target: Fuc(a1-2)Gal(b1-4)GlcNAc
Procedure, shortened: as §1

[26] = target: Fuc(a1-2)Gal(b1-4)GlcNAc(b1-2)Man
Procedure, shortened: as §1

[27] = target: Fuc(a1-2)Gal(b1-4)GlcNAc(b1-2)Man(a1-3)[Fuc(a1-2)Gal(b1-4)GlcNAc(b1-2)Man(a1-6)]Man(b1-4)GlcNAc(b1-4)GlcNAc
Procedure, shortened: as §1

[28] = target: Fuc(a1-2)Gal(b1-4)GlcNAc(b1-2)Man(a1-3)[Fuc(a1-2)Gal(b1-4)GlcNAc(b1-2)Man(a1-6)]Man(b1-4)GlcNAc(b1-4)[Fuc(a1-6)]GlcNAc
Procedure, shortened: as §1

[29] = target: Fuc(a1-2)Gal(b1-4)GlcNAc(b1-2)[Fuc(a1-2)Gal(b1-4)GlcNAc(b1-4)]Man(a1-3)[Fuc(a1-2)Gal(b1-4)GlcNAc(b1-2)Man(a1-6)]Man(b1-4)GlcNAc(b1-4)GlcNAc
Procedure, shortened: as §1

[30] = target: Fuc(a1-2)Gal(b1-4)GlcNAc(b1-3)Gal(b1-4)GlcNAc
Procedure, shortened: as §1

B1: Epa1 (Candida glabrata) (protein)
chain: MGSSHHHHHHSSGLVPRGSHMTSSNDISLASKDPTTFPLGCSPDITTPKKGLSMELYSYDFRKKGSYPCWDAAYLDPNYPRTGYKSHRLLAKVDGVTGNINFYYHATKGCTPQLGHLPASYNYPKPLTMTNFTMLLYGYFRPKVTGFHTFTISADDLLFVNFGAGNAFDCCRRDSSADHFGNYQAYAIWGSKTAKDELTVHLDAGVYYPIRLFYNNREYDGALSFTFKTESNENTVSDFSEYFFSLDDTEEGCPGLISYD
- glycan array binding signal (z-score) [1]: -0.506
- glycan array binding signal (z-score) [2]: -0.25
- glycan array binding signal (z-score) [3]: -0.302
- glycan array binding signal (z-score) [4]: -0.18
- glycan array binding signal (z-score) [5]: -0.273
- glycan array binding signal (z-score) [6]: -0.291
- glycan array binding signal (z-score) [7]: -0.07
- glycan array binding signal (z-score) [8]: -0.312
- glycan array binding signal (z-score) [9]: -0.313
- glycan array binding signal (z-score) [10]: -0.325
- glycan array binding signal (z-score) [11]: -0.328
- glycan array binding signal (z-score) [12]: -0.312
- glycan array binding signal (z-score) [13]: -0.223
- glycan array binding signal (z-score) [14]: 0.361
- glycan array binding signal (z-score) [15]: -0.234
- glycan array binding signal (z-score) [16]: -0.247
- glycan array binding signal (z-score) [17]: -0.335
- glycan array binding signal (z-score) [18]: -0.22
- glycan array binding signal (z-score) [19]: -0.286
- glycan array binding signal (z-score) [20]: -0.252
- glycan array binding signal (z-score) [21]: -0.074
- glycan array binding signal (z-score) [22]: -0.162
- glycan array binding signal (z-score) [23]: -0.282
- glycan array binding signal (z-score) [24]: -0.215
- glycan array binding signal (z-score) [25]: -0.288
- glycan array binding signal (z-score) [26]: -0.292
- glycan array binding signal (z-score) [27]: -0.274
- glycan array binding signal (z-score) [28]: -0.2
- glycan array binding signal (z-score) [29]: -0.323
- glycan array binding signal (z-score) [30]: -0.343
